Laboratory results taken from a collection of fitness landscapes (doi:10.1016/j.celrep.2020.107928).
Whole data set: some 81,000 sequences, median “one-hybrid fitness for binding parS DNA” near -0.17, cut for the highest 2% near 0.51. The list shows a part of the results.

B1: Caulobacter ParB omega fusion; a variant is named by its letters at X, in order, B8GW30 (parent)
chain: MESVVVGEPGMSEGRRGLGRGLSALLGEVDAAPAQAPGEQLGGSREAPIEILQRNPDQPRRTFREEDLEDLSNSIREKGVLQPILVRPSPDTAGEYQIVAGERAWRAAQRAGLKTVPIMVRELDDLAVLEIGIIENVQRADLNVLEEALSYKVLMEKFERTQENIAQTIGKSXSHVANXMRLLXLPDEVQSYLVSGELTAXHARAIAAAADPVALAKQIIEGGLSVRETEALARKAPNLSAGKSKGGRPPRVKDTDTQALESDLSSVLGLDVSIDHRGSTGTLTITYATLEQLDDLCNRLTRGI

Variants of: B1
Test: one-hybrid fitness for binding parS DNA (scaled: cognate 1, non-cognate 0); higher = stronger binding
Details: with parS DNA site
Procedure, shortened: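 Caulobacter ParB libraries with four specificity codons randomised were screened by bacterial one-hybrid selection in the E. coli USO strain, using a HIS3 reporter whose site lies 19 bp from the promoter. Selection ran for 48 hours at 37°C on M9 lacking histidine, with 0.1 mM IPTG and 5 mM 3-AT. Plasmids were Illumina-sequenced before and after selection, three replicate libraries were pooled, and variants with under 10 reads were dropped. Fitness is the log change in each variant's read ratio to wild type, rescaled against the cognate and non-cognate sites.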

Point of comparison: VIMA, “one-hybrid fitness for binding parS DNA” value 0.254. Against it:
- DRNR — lower, ≤ 0.2
- SARH — lower, ≤ 0.2
- QTHH — lower, ≤ 0.2
- SADR — lower, ≤ 0.2
- AYGH — lower, ≤ 0.2
- SRLF — lower, ≤ 0.2
- RKVP — lower, ≤ 0.2
- ATTY — lower, ≤ 0.2
- QMHS — lower, ≤ 0.2
- DLGC — lower, ≤ 0.2
- ELRN — lower, ≤ 0.2
- QNKT — lower, ≤ 0.2
- LAGD — lower, ≤ 0.2
- MEYC — lower, ≤ 0.2
- GNQF — lower, ≤ 0.2
- RCPV — lower, ≤ 0.2
- AFLM — lower, ≤ 0.2
- KQRC — lower, ≤ 0.2
- TFDD — lower, ≤ 0.2
- ISYP — lower, ≤ 0.2
- QPQY — lower, ≤ 0.2
- SGTL — lower, ≤ 0.2
- EREI — lower, ≤ 0.2
- IYTM — lower, ≤ 0.2
- LSTI — lower, ≤ 0.2
- KRAG — lower, ≤ 0.2
- AMTK — lower, ≤ 0.2
- TMNK — lower, ≤ 0.2
- AHRT — lower, ≤ 0.2
- PNNM — lower, ≤ 0.2
- LDPC — lower, ≤ 0.2
- FTCR — lower, ≤ 0.2
- VEVR — lower, ≤ 0.2
- PTDW — lower, ≤ 0.2
- PKDD — lower, ≤ 0.2
- PVPY — lower, ≤ 0.2
- RIFA — higher, 0.529
- RTRN — higher, 0.396
- LNKF — lower, ≤ 0.2
- EDTC — lower, ≤ 0.2
- WNRV — lower, ≤ 0.2
- KGVR — lower, ≤ 0.2
- TPST — lower, ≤ 0.2
- RHGT — higher, 0.832
- QEVL — lower, ≤ 0.2
- EPKV — lower, ≤ 0.2
- VDQD — lower, ≤ 0.2
- PVYN — lower, ≤ 0.2
- DENR — lower, ≤ 0.2
- LCKE — lower, ≤ 0.2
- DGMY — lower, ≤ 0.2
- HMMR — lower, ≤ 0.2
- QLNM — lower, ≤ 0.2
- LVYR — lower, ≤ 0.2
- LIGE — lower, ≤ 0.2
- FANS — lower, ≤ 0.2
- TTPE — lower, ≤ 0.2
- KHMR — lower, ≤ 0.2
- AFGS — lower, ≤ 0.2
- RCFA — higher, 0.589
- VTHY — lower, ≤ 0.2
- WHLI — lower, ≤ 0.2
- RWCS — higher, 0.756
- GYNR — lower, ≤ 0.2
- YFNF — lower, ≤ 0.2
- TEET — lower, ≤ 0.2
- LGSM — lower, ≤ 0.2
- DFSC — lower, ≤ 0.2
- TYDY — lower, ≤ 0.2
- PRNF — lower, ≤ 0.2
- HIRA — lower, ≤ 0.2
- WSRV — lower, ≤ 0.2
- PLIG — lower, ≤ 0.2
- RFIL — lower, ≤ 0.2
- SSNN — lower, ≤ 0.2
- LYWC — lower, ≤ 0.2
- CQYV — lower, ≤ 0.2
- PGFT — lower, ≤ 0.2
- IMAT — lower, ≤ 0.2
- RPAC — lower, ≤ 0.2
- TNTG — lower, ≤ 0.2
- LPSL — lower, ≤ 0.2
- DLKC — lower, ≤ 0.2
- THDT — lower, ≤ 0.2
- YAFT — lower, ≤ 0.2
- IRYN — lower, ≤ 0.2
- TAWV — lower, ≤ 0.2
- IKST — lower, ≤ 0.2
- VHFP — lower, ≤ 0.2
- NQYI — lower, ≤ 0.2
- FKRT — lower, ≤ 0.2
- KAGS — lower, ≤ 0.2
- ARGE — lower, ≤ 0.2
- NVSY — lower, ≤ 0.2
- PFSG — lower, ≤ 0.2
- HHTF — lower, ≤ 0.2
- VFAI — lower, ≤ 0.2
- WVGS — lower, ≤ 0.2
- WRKV — lower, ≤ 0.2
- VRAS — lower, ≤ 0.2
- NQSC — lower, ≤ 0.2
- AMNA — lower, ≤ 0.2
- HRAY — lower, ≤ 0.2
- QHLF — lower, ≤ 0.2
- MFMS — lower, ≤ 0.2
- EKLS — lower, ≤ 0.2
- QHSR — lower, ≤ 0.2
- MRCM — lower, ≤ 0.2
- DACR — lower, ≤ 0.2
- VTDG — lower, ≤ 0.2
- QKYW — lower, ≤ 0.2
- HIHN — lower, ≤ 0.2
- NTGS — lower, ≤ 0.2
- ERLR — lower, ≤ 0.2
- RQDG — higher, 0.93
- RNYY — higher, 0.297
- MKMC — lower, ≤ 0.2
- LEDT — lower, ≤ 0.2
- IRVC — lower, ≤ 0.2
- ILLS — lower, ≤ 0.2
- GQVI — higher, 0.347
- PRCC — lower, ≤ 0.2
- EETG — lower, ≤ 0.2
- TAVI — lower, ≤ 0.2
- KASW — lower, ≤ 0.2
- WNEY — lower, ≤ 0.2
- TEAG — lower, ≤ 0.2
- ERRT — lower, ≤ 0.2
- VCLS — lower, ≤ 0.2
- MPQQ — lower, ≤ 0.2
- HHEY — lower, ≤ 0.2
- PNDC — lower, ≤ 0.2
- KTRR — lower, ≤ 0.2
- NRSQ — lower, ≤ 0.2
- GAEC — lower, ≤ 0.2
- FRRR — lower, ≤ 0.2
- INRR — lower, ≤ 0.2
- HVPS — lower, ≤ 0.2
- HCQT — lower, ≤ 0.2
- CTYY — lower, ≤ 0.2
- NNIT — lower, ≤ 0.2
- HQRI — lower, ≤ 0.2
- RETE — lower, ≤ 0.2
- QVKP — lower, ≤ 0.2
- RKGT — higher, 0.764
- KMDE — lower, ≤ 0.2
- WYKR — lower, ≤ 0.2
- RFHQ — lower, ≤ 0.2
- AKTN — lower, ≤ 0.2
- KHFS — lower, ≤ 0.2
- RDGR — lower, ≤ 0.2
- SYAW — lower, ≤ 0.2
- AYYG — lower, ≤ 0.2
- QKPC — lower, ≤ 0.2
- AQDI — lower, ≤ 0.2
- YSMM — lower, ≤ 0.2
- GKHC — lower, ≤ 0.2
- QDSE — lower, ≤ 0.2
- RMFN — higher, 0.459
- VMFG — lower, ≤ 0.2
- KFKG — lower, ≤ 0.2
- QGDY — lower, ≤ 0.2
- RHDW — lower, ≤ 0.2
- SLPY — lower, ≤ 0.2
- EAAE — lower, ≤ 0.2
- YHPR — lower, ≤ 0.2
- ITFA — lower, ≤ 0.2
- NQDR — lower, ≤ 0.2
- GDTC — lower, ≤ 0.2
- QCHF — lower, ≤ 0.2
- TPVE — lower, ≤ 0.2
- PSLI — lower, ≤ 0.2
- EPML — lower, ≤ 0.2
- QGLG — lower, ≤ 0.2
- YVLR — lower, ≤ 0.2
- IKDF — lower, ≤ 0.2
- LDKL — lower, ≤ 0.2
- LIVY — lower, ≤ 0.2
- DMPL — lower, ≤ 0.2
- QQVA — lower, ≤ 0.2
- YSVC — lower, ≤ 0.2
- GCIG — lower, ≤ 0.2
- QRRR — lower, ≤ 0.2
- THKE — lower, ≤ 0.2
- PHPK — lower, ≤ 0.2
- WDDF — lower, ≤ 0.2
- FNRG — lower, ≤ 0.2
- IFYG — lower, ≤ 0.2
- PLHR — lower, ≤ 0.2
- RPGK — lower, ≤ 0.2
- GRDI — lower, ≤ 0.2
- PACT — lower, ≤ 0.2
- WTHV — lower, ≤ 0.2
- TFWR — lower, ≤ 0.2
